Some of the results follow. For part of these data: At the low end of the ranking the order means little.
Key:
[1] = target: T1, PXR (Homo sapiens) (UniProt O75469); details: 270 nM, no RXRa, PBS pH 7.4, 2% milk, 0.02% Triton X-100, 1 mM DTT, BSA, 0.4 mg/ml salmon testes DNA; double strand, one strand shown
T1 sequence: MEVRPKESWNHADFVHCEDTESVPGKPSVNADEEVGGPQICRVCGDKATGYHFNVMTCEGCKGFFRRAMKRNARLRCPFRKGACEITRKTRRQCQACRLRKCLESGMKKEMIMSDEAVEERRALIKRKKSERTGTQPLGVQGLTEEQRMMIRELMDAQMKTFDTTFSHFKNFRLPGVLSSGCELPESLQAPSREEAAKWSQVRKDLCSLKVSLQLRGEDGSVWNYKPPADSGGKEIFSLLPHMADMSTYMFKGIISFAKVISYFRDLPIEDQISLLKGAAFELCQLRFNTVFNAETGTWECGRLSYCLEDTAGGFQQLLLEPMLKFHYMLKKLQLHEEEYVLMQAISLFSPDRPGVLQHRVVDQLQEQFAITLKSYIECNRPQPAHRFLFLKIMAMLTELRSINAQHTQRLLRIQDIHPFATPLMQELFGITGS

[2] = target: T2, RARb (Homo sapiens) (UniProt P10826); details: 270 nM, no RXRa, PBS pH 7.4, 2% milk, 0.02% Triton X-100, 1 mM DTT, BSA, 0.4 mg/ml salmon testes DNA; double strand, one strand shown
T2 sequence: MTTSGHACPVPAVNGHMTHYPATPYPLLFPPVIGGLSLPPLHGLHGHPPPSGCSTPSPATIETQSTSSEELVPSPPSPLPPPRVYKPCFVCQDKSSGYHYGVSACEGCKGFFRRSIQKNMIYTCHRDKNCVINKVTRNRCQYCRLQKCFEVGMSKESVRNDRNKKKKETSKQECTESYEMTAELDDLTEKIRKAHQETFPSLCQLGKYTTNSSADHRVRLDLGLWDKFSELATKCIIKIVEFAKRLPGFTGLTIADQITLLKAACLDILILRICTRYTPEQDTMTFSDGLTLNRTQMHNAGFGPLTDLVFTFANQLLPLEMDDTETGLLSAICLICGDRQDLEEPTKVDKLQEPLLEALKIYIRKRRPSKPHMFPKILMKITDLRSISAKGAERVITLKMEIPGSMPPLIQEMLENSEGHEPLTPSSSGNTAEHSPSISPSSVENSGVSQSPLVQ

[3] = target: T3, RARg (Homo sapiens) (UniProt P13631); details: 270 nM, no RXRa, PBS pH 7.4, 2% milk, 0.02% Triton X-100, 1 mM DTT, BSA, 0.4 mg/ml salmon testes DNA; double strand, one strand shown
T3 sequence: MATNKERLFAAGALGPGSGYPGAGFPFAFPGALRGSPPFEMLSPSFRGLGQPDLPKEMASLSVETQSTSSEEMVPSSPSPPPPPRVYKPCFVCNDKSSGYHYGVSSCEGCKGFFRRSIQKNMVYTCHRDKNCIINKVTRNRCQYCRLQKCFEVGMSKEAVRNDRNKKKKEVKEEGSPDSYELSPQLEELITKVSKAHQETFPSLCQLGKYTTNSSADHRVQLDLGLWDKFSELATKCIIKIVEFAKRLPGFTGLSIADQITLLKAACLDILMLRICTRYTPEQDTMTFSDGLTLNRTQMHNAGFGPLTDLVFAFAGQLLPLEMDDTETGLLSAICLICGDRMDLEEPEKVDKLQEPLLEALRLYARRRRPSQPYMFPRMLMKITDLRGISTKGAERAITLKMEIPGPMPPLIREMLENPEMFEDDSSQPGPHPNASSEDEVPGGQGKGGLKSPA

[4] = target: T4, RARa (Homo sapiens) (UniProt P10276); details: 270 nM, no RXRa, PBS pH 7.4, 2% milk, 0.02% Triton X-100, 1 mM DTT, BSA, 0.4 mg/ml salmon testes DNA; double strand, one strand shown
T4 sequence: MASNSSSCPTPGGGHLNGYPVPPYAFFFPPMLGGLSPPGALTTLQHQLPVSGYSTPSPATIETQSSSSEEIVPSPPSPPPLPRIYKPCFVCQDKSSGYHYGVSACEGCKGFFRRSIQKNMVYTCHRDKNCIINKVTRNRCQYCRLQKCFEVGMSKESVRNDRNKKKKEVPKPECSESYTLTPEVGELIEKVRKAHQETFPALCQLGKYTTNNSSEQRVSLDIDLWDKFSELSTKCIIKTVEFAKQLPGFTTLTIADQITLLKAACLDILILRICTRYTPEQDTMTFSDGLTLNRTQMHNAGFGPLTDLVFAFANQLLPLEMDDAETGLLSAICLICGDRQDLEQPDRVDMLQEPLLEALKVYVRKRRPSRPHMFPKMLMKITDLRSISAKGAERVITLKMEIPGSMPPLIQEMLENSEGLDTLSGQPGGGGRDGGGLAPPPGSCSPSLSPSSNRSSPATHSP

[5] = target: T5, VDR (Homo sapiens) (UniProt P11473); details: 270 nM, no RXRa, PBS pH 7.4, 2% milk, 0.02% Triton X-100, 1 mM DTT, BSA, 0.4 mg/ml salmon testes DNA; double strand, one strand shown
T5 sequence: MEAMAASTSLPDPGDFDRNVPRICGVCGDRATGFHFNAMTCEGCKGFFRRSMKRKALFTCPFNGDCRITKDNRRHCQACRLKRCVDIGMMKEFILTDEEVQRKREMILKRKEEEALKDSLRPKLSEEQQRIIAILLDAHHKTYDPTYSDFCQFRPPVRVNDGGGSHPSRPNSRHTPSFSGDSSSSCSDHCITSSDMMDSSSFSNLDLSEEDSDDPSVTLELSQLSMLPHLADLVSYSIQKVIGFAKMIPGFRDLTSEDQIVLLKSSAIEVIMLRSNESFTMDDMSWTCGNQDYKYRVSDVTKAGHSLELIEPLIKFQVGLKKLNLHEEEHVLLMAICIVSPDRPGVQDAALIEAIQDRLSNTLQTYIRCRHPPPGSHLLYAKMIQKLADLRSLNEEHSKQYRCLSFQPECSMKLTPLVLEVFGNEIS

[6] = target: PPARg (Homo sapiens) (UniProt P37231); details: 180 nM, no RXRa, PBS pH 7.4, 2% milk, 0.02% Triton X-100, 1 mM DTT, BSA, 0.4 mg/ml salmon testes DNA; double strand, one strand shown
Sequence of UniProt P37231 (P37231 29-505): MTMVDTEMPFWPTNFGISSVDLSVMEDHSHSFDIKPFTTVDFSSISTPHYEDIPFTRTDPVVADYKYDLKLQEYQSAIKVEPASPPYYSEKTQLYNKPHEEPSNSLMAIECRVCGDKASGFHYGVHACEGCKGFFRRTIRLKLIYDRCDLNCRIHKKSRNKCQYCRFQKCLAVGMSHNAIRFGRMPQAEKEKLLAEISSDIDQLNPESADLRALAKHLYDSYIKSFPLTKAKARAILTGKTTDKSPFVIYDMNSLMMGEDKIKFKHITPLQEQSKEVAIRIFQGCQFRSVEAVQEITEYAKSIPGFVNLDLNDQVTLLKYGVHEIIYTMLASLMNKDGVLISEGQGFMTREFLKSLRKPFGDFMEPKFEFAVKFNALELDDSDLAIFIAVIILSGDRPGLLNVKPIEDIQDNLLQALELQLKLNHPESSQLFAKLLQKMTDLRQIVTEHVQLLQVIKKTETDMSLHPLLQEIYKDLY

[7] = target: T6, THRa (Homo sapiens) (UniProt P10827); details: 90 nM, no RXRa, PBS pH 7.4, 2% milk, 0.02% Triton X-100, 1 mM DTT, BSA, 0.4 mg/ml salmon testes DNA; double strand, one strand shown
T6 sequence: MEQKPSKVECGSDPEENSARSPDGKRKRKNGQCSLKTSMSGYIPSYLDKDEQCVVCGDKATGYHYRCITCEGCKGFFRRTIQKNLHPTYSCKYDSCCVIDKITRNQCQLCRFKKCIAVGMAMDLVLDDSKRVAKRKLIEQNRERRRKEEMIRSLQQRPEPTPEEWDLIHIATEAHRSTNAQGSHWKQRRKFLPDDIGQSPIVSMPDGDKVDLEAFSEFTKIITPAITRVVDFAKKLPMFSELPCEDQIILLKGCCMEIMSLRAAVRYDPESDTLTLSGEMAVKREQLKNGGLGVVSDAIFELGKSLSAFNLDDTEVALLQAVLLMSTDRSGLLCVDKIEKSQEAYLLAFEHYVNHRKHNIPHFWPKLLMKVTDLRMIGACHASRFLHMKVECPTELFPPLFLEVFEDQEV

[8] = tested on: PPARg-DBDmut:RXRa PPARg:K132A + PPARg:R137A; details: 270 nM : 90 nM RXRa, PBS pH 7.4, 2% milk, 0.02% Triton X-100, 1 mM DTT, BSA, 0.4 mg/ml salmon testes DNA; double strand, one strand shown

Sequence “GCTGGCAATGGCTGGACCACTCCAAGAACTGTGTGGGCGATTGACAGCGTAGAATGAAGG” has a binding signal (PBM z-score against 500 random probes) [1] of -0.99 and a binding signal (PBM z-score against 500 random probes) [2] of -0.64.
“GCAACAGGCAGCTGGCTGTGCACGGCAACCATGGGCGCGATTGACAGCGTAGAATGAAGG” showed a binding signal (PBM z-score against 500 random probes) [2] of -1.73.
“GCTCCCTGCCCAGTTCTGTGCAGGGTGTGCGTGTCTGCGATTGACAGCGTAGAATGAAGG” gave a binding signal (PBM z-score against 500 random probes) [3] of -2.17.
“GCGTGCGAGGGAAGGAGCATGCTTCATTGATCCCATGCGATTGACAGCGTAGAATGAAGG” showed a binding signal (PBM z-score against 500 random probes) [3] of -0.58.
For “GCCAATGCCAGCTACCAGGAGGCTGAGGTGTGAGAGGCGATTGACAGCGTAGAATGAAGG”, the binding signal (PBM z-score against 500 random probes) [1] was -0.47.
For “GCCTGTGGAATCCAACATGCCAAATGCTTGCTTGAGGCGATTGACAGCGTAGAATGAAGG”, the binding signal (PBM z-score against 500 random probes) [1] was -0.58.
“GCCAAAGACAGCTTTGCAAGGCCACTTCTGTTTGCTGCGATTGACAGCGTAGAATGAAGG” was tested, and the binding signal (PBM z-score against 500 random probes) [2] was -0.15.
Work on “GCCAAGAATCAGACTCTTAAGTAGATGCCTGTAGCTGCGATTGACAGCGTAGAATGAAGG” yielded a binding signal (PBM z-score against 500 random probes) [3] of 0.12.
Sequence “GCATCAGGTCTGCACCTGCAGATGGCGAGGGTTGGCGCGATTGACAGCGTAGAATGAAGG” has a binding signal (PBM z-score against 500 random probes) [4] of -0.46.
“GCACACAGAGAAACTCTTGCCAGTAGCAGTAGTACCGCGATTGACAGCGTAGAATGAAGG” gave a binding signal (PBM z-score against 500 random probes) [1] of -0.07 and a binding signal (PBM z-score against 500 random probes) [5] of -0.26.
Sequence “GCCAAGATAACCAGCTTATCTATCAGTTGGAGCAGAGCGATTGACAGCGTAGAATGAAGG” has a binding signal (PBM z-score against 500 random probes) [4] of 0.4.
With “GCCACACTTGCAGAGGAGAAAGGAGTTTGGAAAGCCGCGATTGACAGCGTAGAATGAAGG” the binding signal (PBM z-score against 500 random probes) [6] was 0.32 and the binding signal (PBM z-score against 500 random probes) [4] was 0.05.
“GCGCCTCAGTCATGAGTCACATGAAAGTGACTCACCGCGATTGACAGCGTAGAATGAAGG” was tested, and the binding signal (PBM z-score against 500 random probes) [4] was -0.91.
With “GCGCCTTGTCCTTCTGCAGCTGCTGGTGCAGCCCAGGCGATTGACAGCGTAGAATGAAGG” the binding signal (PBM z-score against 500 random probes) [1] was -1.34, the binding signal (PBM z-score against 500 random probes) [4] was -2.04 and the binding signal (PBM z-score against 500 random probes) [3] was -0.65. The binding signal (PBM z-score against 500 random probes) [7] was 0.05.
“GCACAGAAATGAAATGGGCTATAGAGCTCATCTTCTGCGATTGACAGCGTAGAATGAAGG” showed a binding signal (PBM z-score against 500 random probes) [1] of -0.36.
For “GCCAGGAGTTCAAGACCAGCCTGGTCAACATGGTGAGCGATTGACAGCGTAGAATGAAGG”, the binding signal (PBM z-score against 500 random probes) [4] was -0.09.
With “GCTGCAGAGAGGCCACCAGCCAGCCCAGACCCATGCGCGATTGACAGCGTAGAATGAAGG” the binding signal (PBM z-score against 500 random probes) [1] was -0.81 and the binding signal (PBM z-score against 500 random probes) [7] was -0.14.
“GCAAAGGCCTGAGAACCAGGACCTCCAGTGTCCTCAGCGATTGACAGCGTAGAATGAAGG” was tested, and the binding signal (PBM z-score against 500 random probes) [4] was -1.48.
Sequence “GCAGCCATATGCAAATGAGTACATCCTGTGTGATTCGCGATTGACAGCGTAGAATGAAGG” has a binding signal (PBM z-score against 500 random probes) [1] of 0.04.
“GCAGGGATGAATAGATCGAAGTTACTGCCCATTCAAGCGATTGACAGCGTAGAATGAAGG” showed a binding signal (PBM z-score against 500 random probes) [6] of 0.15 and a binding signal (PBM z-score against 500 random probes) [1] of 0.27.
“GCTGAGGTGCTTCAGAGATGTCCACTCCTGCTGGCTGCGATTGACAGCGTAGAATGAAGG” showed a binding signal (PBM z-score against 500 random probes) [1] of -0.88.
Work on “GCCTGGCTGGGCATGGTGGCTCATGCCTGTAATCCCGCGATTGACAGCGTAGAATGAAGG” yielded a binding signal (PBM z-score against 500 random probes) [6] of -1.11 and a binding signal (PBM z-score against 500 random probes) [5] of -0.56.
For “GCGGTTGAATGCCCAGATAGTACACACACCAAGCTTGCGATTGACAGCGTAGAATGAAGG”, the binding signal (PBM z-score against 500 random probes) [1] was 0.37.
In the case of “GCAGGTCAAAGTCAGCCAGCTAGTAGGTCAGGGAGCGCGATTGACAGCGTAGAATGAAGG”, the binding signal (PBM z-score against 500 random probes) [8] is reported as 0.91.
Work on “GCGCAGGGACTATGTGCATTAGGCCAGTTCCTCATGGCGATTGACAGCGTAGAATGAAGG” yielded a binding signal (PBM z-score against 500 random probes) [4] of -1.32.
“GCCATGTCACCTCCCTGAGGTGCAGTTTGCTTCAAGGCGATTGACAGCGTAGAATGAAGG” gave a binding signal (PBM z-score against 500 random probes) [1] of -0.62 and a binding signal (PBM z-score against 500 random probes) [4] of -0.62.
